Reference: PubChem BioAssay AID686979 (National Center for Advancing Translational Sciences (NCATS), 2013)
The whole screen tested about 420,000 compounds, of which about 50,000 (12%) were called active. Inconclusive results, whose numbers are uncertain, are shown with a selection of clear calls. Calls come from the whole dose curve; as a rule, active = well fitted inhibition curve with a large enough effect; inconclusive = small, poorly fitted or top-dose-only effect; inactive = flat fitted curve, though single readings scatter. No potency is given beside an inconclusive call; the fits are too rough.

Test: qHTS for Inhibitors of human tyrosyl-DNA phosphodiesterase 1 (TDP1): qHTS in cells in presence of CPT; note: nearly all actives have a fitted effect of over 55% in size
Conditions: chicken DT40 Tdp1-/-;hTDP1 cells + 20 nM CPT, ATP luminescence, 48 h; activity change, negative = growth inhibition: at 46.2 µM (top of the series) unless noted
Procedure, shortened: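 Chicken DT40 Tdp1-/- cells stably complemented with human TDP1 were seeded at 400 cells/well in medium containing 20 nM camptothecin, exposed to pin-transferred compounds, and grown at 37 °C for at least 48 hr. Viability was read as ATP luminescence.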
% is set by controls: 0 for no effect and ±100 for the full control effect; potency is the fitted concentration of half-maximal effect; tags give direction and shape of the fitted curve.

Structure (SMILES)	Potency	activity change, negative = growth inhibition
CC1=C(C(=O)OCc2ccccc2)C(c2ccsc2)C(C#N)=C(N)O1 (stereo not drawn)	inconclusive [inhibitor, single point]	
O=C(Nc1ccc(S(=O)(=O)Nc2ncccn2)cc1)c1cc(=O)c2ccccc2o1	inactive	
CCN1C(=O)[C@H]2[C@@H](c3ccc(-c4ccc5c(c4)OCO5)cc3)N3CCC[C@@]3(C(=O)OC)[C@H]2C1=O	inconclusive [inhibitor, single point]	
Cn1nnnc1SCC(=O)Nc1ccccc1Cl	inactive	
Cc1cccc(OCc2nnc(SCC(=O)N3c4ccccc4CCc4ccccc43)o2)c1	inconclusive [inhibitor, single point]	
O=C(Nc1ccc(S(=O)(=O)N2CCOCC2)cc1)c1cc([N+](=O)[O-])ccc1Cl	active: 16.4 µM	
Cn1c(C(=O)NCCc2c[nH]c3ccccc23)cc2sccc21	inconclusive [inhibitor, single point]	
O=C(Nn1c(Cc2ccccc2)nc2ccccc2c1=O)c1c(O)c2cccc3c2n(c1=O)CCC3	inconclusive [inhibitor, single point]	
CN(Cc1ccccc1)C1CCN(Cc2ccccc2[N+](=O)[O-])CC1	inactive	
CN(C(=O)c1ccc(NC(=O)Cc2ccc([N+](=O)[O-])cc2)cc1)C1CCCC1	active: 13 µM	
CCCCCCCNC(=O)C1(CC2CC(c3ccc(Cl)cc3)=NO2)CCN(C(=O)Cc2ccc(F)cc2)CC1 (stereo not drawn)	inconclusive [inhibitor, single point]	
COc1ccccc1C(=O)NNC(=O)c1cccc(C)c1	inconclusive [inhibitor, single point]	
N#Cc1cccc(NC(=O)N2CC[C@@]3(CCCN(C(=O)c4ccco4)C3)C2)c1	inactive	
COC(=O)c1ccc(COC(=O)c2ccc(CS(=O)(=O)c3ccc(C)cc3)cc2)cc1	inactive	
O=C(NC1CCCCC1)C(c1ccc(F)cc1)N(CCc1ccccc1)C(=O)CN1C(=O)c2ccccc2S1(=O)=O (stereo not drawn)	active: 3.66 µM	
CCc1ccc(CCC(=O)Nc2nnc(CC)s2)o1	inactive	
O=C(NCc1cccnc1)C1CCN(S(=O)(=O)N2CCC3(CC2)OCCO3)CC1	inactive	
CCOc1ccc(N(CC(=O)NC2CCCCC2)S(=O)(=O)c2ccccc2)cc1	inactive	
Cc1ccc(-c2c(C(=O)NNC(=S)NCC3CCCO3)csc2C)cc1 (stereo not drawn)	inconclusive [inhibitor, partial curve, poor fit]	
COc1ccc(C(=O)N=C2SC3CS(=O)(=O)CC3N2Cc2ccc(F)cc2)cc1 (stereo not drawn)	inactive	
COc1ccc2c(c1)[C@H]1[C@H](CO2)[C@H](c2ccccc2)[C@]2(C)C(=O)Nc3cc(F)ccc3C(=O)N12	inconclusive [inhibitor, single point]	
Cc1csc(-c2coc3cc(O[C@@H]4O[C@H](CO)[C@@H](O)[C@@H](O)[C@H]4O)ccc3c2=O)n1		inactive: 8.48% [at 9.04 µM]
CCOC(=O)CN1C(=O)C(O)(CC(=O)c2ccco2)c2ccccc21 (stereo not drawn)	inconclusive [inhibitor, single point]	
CCOc1ccc(-n2c(SCC(=O)OC)nc3sc4c(c3c2=O)CCN(C)C4)cc1	inconclusive [inhibitor, single point]	
CC(=O)c1ccc(NC(=O)C(C)Sc2n[nH]c(-c3cccnc3)n2)cc1 (stereo not drawn)	inactive	

Structure (SMILES)	Potency	activity change, negative = growth inhibition
C[C@@H]1[C@H](O)C[C@@]23COC(=O)C2=CCCC3[C@@]1(C)CCC1COC(=O)C1 (stereo partly drawn)	inactive	
O=C(CC1C(=O)N(c2ccccc2)C(=O)N1Cc1ccc(F)cc1)Nc1cccc(F)c1 (stereo not drawn)	inconclusive [inhibitor, single point]	
CC(C)(C)OC(=O)NCc1ccc(CNC(=O)c2[nH]cnc2C(=O)N[C@@H](Cc2ccccc2)C(=O)OC(C)(C)C)cc1	active: 18.4 µM	
CCC(C)(C)c1ccc(Oc2ccc(NC(=O)COC(=O)C3=COCCO3)cc2)cc1	inconclusive [inhibitor, single point]	
COc1ccc(-c2nc3c(Cl)cc(C(F)(F)F)cn3c2Cc2ccsc2)cc1OC	inconclusive [inhibitor, single point]	
C[C@H](CO)N1C[C@H](C)[C@@H](CN(C)Cc2ccc(-c3ccccc3)cc2)Oc2c(NS(=O)(=O)c3cccs3)cccc2C1=O	active: 18.4 µM	
C[C@@H]1CN([C@H](C)CO)C(=O)Cc2cc(NC(=O)Nc3ccccc3)ccc2O[C@@H]1CN(C)Cc1ccc2c(c1)OCO2	inconclusive [inhibitor, single point]	
COC(=O)[C@@H]1CCCN1C(=O)c1ccc(OC2CCN(Cc3ccccn3)CC2)cc1	inactive	
CCOc1ccc(Nc2nc(Cc3nnc(SCC(=O)NCc4ccco4)n3CC)cs2)cc1	active: 13 µM	
c1ccc(Sc2ccccn2)cc1	inactive	
COc1ccc(N2CCN(C(c3ccccc3)c3nnnn3C(C)C)CC2)cc1 (stereo not drawn)	inconclusive [inhibitor, single point]	
Cc1c(C(=O)Nc2ccc3nc(N4CCOCC4)sc3c2)oc2ccccc12	active: 25.9 µM	
COc1ccc(C2=C(N)c3ccccc3C2=O)cc1		inconclusive: -34.3% [inhibitor]
CCN(CC)C(=O)Cn1c(=O)cc(C)c2c(C)nn(-c3ccc(C)cc3)c21	inactive	
CN(C)S(=O)(=O)c1ccc(Cl)c(NC(=O)CSc2nc3ccccc3c(=O)n2CCCN2CCOCC2)c1	inconclusive [inhibitor, single point]	
C[C@@H]1CNC(=O)c2c(C(=O)N[C@H](C)c3ccccc3)ncn21	inactive	
Cc1ccc(S(=O)(=O)N2[C@@H](c3ccccc3F)C(C(=O)O)=CC[C@H]2c2ccc(Cl)cc2)cc1	inactive	
COc1ccc(-c2cc(-c3ccccc3)nc3c2COc2ccc(F)cc2-3)cc1	inconclusive [inhibitor, single point]	
CCOC(=O)C1CCN(C2=NC(=O)/C(=C/c3ccc(Cl)cc3)S2)CC1	inconclusive [inhibitor, partial curve]	
CCc1ccc2[nH]c(=O)c(CN(Cc3ccc4c(c3)OCO4)Cc3nnnn3C3CCCC3)cc2c1	active: 18.4 µM	
O=C(/C=C/c1ccc(S(=O)(=O)NCc2ccco2)cc1)NCc1ccccc1Cl	inconclusive [inhibitor, single point]	
COC(=O)c1c[n+]([O-])ccc1OC	inactive	
CCOC(=O)c1ccc(N=c2sc(C(=O)OC)cc(=O)n2CCCN2CCOCC2)cc1	active: 14.6 µM	
Cc1ccc(N=C2NC(=O)/C(=C/c3cccn3C)S2)cc1	active: 6.51 µM	
CCCCC(=O)Nc1ccc(S(=O)(=O)N2CCCCC2c2cccnc2)cc1 (stereo not drawn)	active: 18.4 µM	

Structure (SMILES)	Potency	activity change, negative = growth inhibition
CCCS(=O)(=O)N1CCCC(C(=O)c2cccc(Cl)c2)C1 (stereo not drawn)	inactive	
CC(C)(C)c1ccc(S(=O)(=O)NNC(=O)c2cc3ccccc3[nH]2)cc1	inconclusive [inhibitor, single point]	
Brc1ccc(C=Nc2ccc3c(c2)OCCOCCOCCO3)s1	inactive	
Cn1c(CC2Sc3ccccc3NC2=O)nnc1SCC(=O)c1ccc(Cl)cc1 (stereo not drawn)	inactive	
COc1cc(OC)c(-c2nn3c(-c4cc(C)[nH]n4)nnc3s2)cc1OC	active: 7.08 µM	
COc1ccc2c(c1)Cc1sc(NC(C)=O)nc1-2	inactive	
O=C(Nc1ccc(F)cc1)C(c1ccccc1)N1CCN(c2cccc(C(F)(F)F)n2)CC1 (stereo not drawn)	inconclusive [inhibitor, single point]	
COC(=O)c1ccc(C2c3c(oc4ccccc4c3=O)C(=O)N2CCCN2CCOCC2)cc1 (stereo not drawn)	active: 20.6 µM	
Cc1cc(NC(=O)c2ccc3c(c2)OCCO3)ccc1NC(=O)c1cc2ccccc2o1	active: 5.8 µM	
O=C(C[C@H]1C[C@H](C(=O)N2CCCCC2)[C@@]2(CCc3ccccc3)c3[nH]c4cc(-c5ccco5)ccc4c3CCN2C1=O)NCc1cccc(C(F)(F)F)c1	inconclusive [inhibitor, single point]	
Cc1cccc(NC(=S)/N=C(\N)Nc2nc(C)c3ccccc3n2)c1	active: 18.4 µM	
O=C(Nc1cnc2ccccc2c1)c1cccnc1	inactive	
COc1ccc(OCCCC(=O)OCC(=O)Nc2nnc(-c3ccccc3)o2)cc1	inactive	
CCCCOC(=O)CSC1=C(C#N)C(c2ccccc2OC)C(C#N)C(=O)N1 (stereo not drawn)	inconclusive [inhibitor, single point]	
CC(C)c1nn2c(=O)cc(COC(=O)c3ccc(NC(=O)C4CCCCC4)cc3)nc2s1	inconclusive [inhibitor, single point]	
O=C(NCc1nc(-c2ccc(C(F)(F)F)cc2)no1)Nc1ccc(OC(F)(F)F)cc1	inconclusive [inhibitor, single point]	
Cc1ccc(CSc2ncc(Cl)c(C(=O)NCc3ccccc3)n2)cc1	inactive	
Cc1ccc2[nH]c(=O)c(NC(N)=S)nc2c1	inactive	
Cc1ccc(C)c(NC(=S)NC(NC(=O)N(C)C)C(Cl)(Cl)Cl)c1 (stereo not drawn)	inactive	
Cc1cc(C(=O)N2CCN(c3ccc(C(F)(F)F)cn3)CC2)c(C)o1	inconclusive [inhibitor, single point]	
COCCN1CCN(Cc2nc(Cc3ccc(OC)c(OC)c3)no2)CC1	inactive	
Cn1nc(C2CC2)cc1NC(=O)C1(C)CCN1C(=O)Cc1ccc(-c2ccccc2)cc1 (stereo not drawn)	active: 20.6 µM	
COC(=O)c1cc(=O)n(CCc2ccc(OC)cc2)c(=Nc2ccc(F)c(Cl)c2)s1	inconclusive [inhibitor, single point]	
